Data from PubChem BioAssay AID493208 (National Center for Advancing Translational Sciences (NCATS), 2011).
Among all 44,000 compounds or so, about 340 (0.77%) were called active. Not shown: some 5% with an inconclusive outcome. Calls follow the shape of the dose curve; as a rule, active = well fitted inhibition curve with a large enough effect; inconclusive = small, poorly fitted or top-dose-only effect; inactive = flat fitted curve, though single readings scatter. Some of the results follow.

Test: Acumen qHTS Assay for Inhibitors of the mTORC1 Signaling Pathway in MEF (Tsc2-/-, p53-/-) Cells: Sytravon;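 also: plate controls were DMSO for no effect and rapamycin for full effect; nearly all actives have a fitted effect of over 50% in size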
Conditions: phospho-rpS6 immunofluorescence/PI, 24 h; series mostly up to 38.3 µM; activity change, negative = inhibition: at the top concentration
Method in brief: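 Readout is phospho-S6 Alexa 488 signal normalized to PI per well, reported as % active cells with thresholds set from rapamycin (7.5 nM) and DMSO controls. Cells: Tsc2-/-, p53-/- MEFs, 24 hrs compound at 37 C; PI cell number serves as viability.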

Activity change, negative = inhibition, inactive:
CC(=O)Nc1ccc(NC(=O)CN(C)S(=O)(=O)c2ccc3c(c2)CCCC(=O)N3)cc1 6.17%, COc1ccc(CC(=O)NCC(c2cccs2)S(=O)(=O)c2ccc(F)c(C)c2)cc1 (stereo not given) -13.2%, Cc1ccc(C)c(S(=O)(=O)c2nnn3c2nc(N2CCN(C)CC2)c2sccc23)c1 -4.6%, COc1ccccc1C(=O)Nc1nc2n(n1)C(c1ccc(F)cc1)C=C(c1ccc(Cl)cc1)N2 (stereo not given) 1.58%, CCOC(=O)c1cc(S(=O)(=O)NCc2ccc(Cl)cc2)[nH]n1 0.011%, Cc1cccc(CN2CCC(CNC(=O)Cn3ncc4c([nH]c5ccc(C)cc54)c3=O)CC2)c1 1.07%, COc1ccccc1C(=O)N/C(=C\c1cn(S(=O)(=O)N(C)C)c2ccccc12)C(=O)NCCCn1ccnc1 -1.05%, CCc1ccc(CNC(=O)C2CCCN(c3nnc(C)c4c(C)n(-c5ccccc5)nc34)C2)cc1 (stereo not given) -3.26%, Cc1ccccc1CSc1ncc(Cl)c(C(=O)Nc2nc3ccc(F)cc3s2)n1 -3.81%, COc1ccccc1C(=O)Nc1ccc2nc(SCC(=O)N3CCCc4ccccc43)sc2c1 -10.5%, COc1ccc(OC)c(NC(=O)C2CCCN(S(=O)(=O)c3ccc4c(c3)CCCC(=O)N4)C2)c1 (stereo not given) 0%, Cc1cc2n(n1)CCC(=O)N2Cc1ccc(C(=O)Nc2cc(Cl)ccc2C)cc1 0.252%, COc1ccccc1NC(=O)C1=C(C)Nc2nc(SC)nn2C1c1ccccc1Cl (stereo not given) -4.97%, O=S1(=O)c2ccccc2N(Cc2cccc(F)c2)c2ccccc21 -12.9%, COc1ccc(NC(=O)c2ccco2)cc1NC(=O)c1cc(Cl)ccc1OC 2.78%, CSc1ccc(-c2nnn(CC(=O)Nc3sc4c(c3C#N)CCC(C(C)(C)C)C4)n2)cc1 (stereo not given) -3.36%, CCCCOc1ccc(C(C)NC(=O)CN2C(=O)CSc3ccc(S(=O)(=O)N4CCOCC4)cc32)cc1 (stereo not given) -3.71%, CCCN(CCC)C(=O)Cn1c(=O)n(-c2cccc(C)c2)c(=O)c2c1c1cc(OC)ccc1n2C -4.5%, COc1cccc(-c2cc(C(F)(F)F)nc(NCCc3ccc(OC)c(OC)c3)n2)c1 -0.324%, Cc1c(C(=O)OC2CCCCC2)[nH]c2c1C(=O)CC(c1ccc(F)cc1)C2 (stereo not given) -3.11%, CC(C)CC(=O)NCC(c1ccc2c(c1)OCO2)N1CCN(c2ccccc2)CC1 (stereo not given) -1.57%, O=C(CN1CCCN(Cc2cccc(Cl)c2)S1(=O)=O)Nc1ccc2c(c1)OCCO2 0%, CCC(=O)Nc1ccc(Cl)c(-c2nc3ccccc3[nH]2)c1 -9.44%, COc1ccccc1CNC(=O)CCc1c(C)nc2cc(-c3ccc(Cl)cc3)nn2c1C -2.44%, Cc1cccc(NC(=O)c2ccc(-n3c(C)nnc3C)cc2)c1 -11.5%, Cc1ccc(-n2ncc3c(N4CCCCCC4)ncnc32)cc1Cl 0.477%, COc1c(Cl)cc(Cl)cc1C(=O)Nc1cccc(-c2nc3ccccc3o2)c1C -4.17%, O=S(=O)(c1ccc(F)cc1)N1CCC(Oc2cccc(C(F)(F)F)c2)CC1 -8.21%, CCc1ccccc1NC(=O)c1cn(C)c(=O)c2ccccc12 3.28%, CCn1c(COc2ccc(Cl)cc2Cl)nc2ccccc21 7.74%, COc1ccc(S(=O)(=O)N2Cc3ccccc3CC2C(=O)Nc2ccc(C)cc2)cc1OC (stereo not given) -2.64%, COc1cccc(CNC(=O)C(=O)NCC(c2cccs2)S(=O)(=O)c2ccccc2)c1 (stereo not given) -11.1%, Cc1cccc(CCNC(=O)c2cc(S(=O)(=O)N3CCCCC3)c[nH]2)c1 0%, Cc1c2cnn(-c3ccccc3)c(=O)c2c(C)n1C(C)C(=O)Nc1ccccc1C(F)(F)F (stereo not given) 0.97%, Cc1cccc(N2CCN(C(=O)c3ccc4c(c3)N(Cc3ccccc3)C(=O)c3ccccc3S4(=O)=O)CC2C)c1 (stereo not given) -1.86%, CCOC(=O)CC(NC(=O)Cn1nnc(-c2ccccc2Cl)n1)c1ccc(OC)cc1 (stereo not given) 0.166%, Cc1ccc(C)c(NC(c2ccccc2)c2nnc(-c3ccccc3F)o2)c1 (stereo not given) -3.41%, Clc1ccc(CCNc2nc3cc(Cl)c(Cl)cc3n3cnnc23)cc1 -2.27%, COc1ccc(CCN2C(=O)N(c3cccc(C)c3)C(=O)C2CC(=O)Nc2ccccc2)cc1OC (stereo not given) -0.552%, COc1cc(-c2nc(SCC(=O)Nc3ccc4c(c3)OCO4)c(-c3ccccc3)[nH]2)cc(OC)c1OC -16.1%, COc1ccc(-c2nnc(SCC(=O)N3CCC(C)CC3)o2)cc1 -23%, COc1ccc(-c2nnc(C3CCN(S(=O)(=O)c4cccc(Cl)c4)CC3)o2)cc1 -18.5%, COc1ccccc1CNC(=O)CSc1ncc(S(=O)(=O)c2ccc(C)c(Cl)c2)c(=O)[nH]1 -11.2%, COc1ccc(OCCn2c(NC(=O)c3ccc(OC)cc3)nc3ccccc32)cc1 -12.7%, CNC(=O)C1CCC(Cn2c(=O)c3sccc3n(CC(=O)N3CCCC(C)C3)c2=O)CC1 (stereo not given) -0.0668%, COCCCNC(=O)C1CCN(Cc2cc3ccccc3n2Cc2cccc(C)c2)CC1 -4.22%, CCOc1ccc(-c2nnc(SCC(=O)Nc3cccc(C#N)c3)o2)cc1 5.04%, CCCCOC(=O)c1c(C)oc2c1cc(NS(=O)(=O)c1cc(OC)ccc1OC)c1ccccc12 4.11%, COc1cccc(NC(=O)Nc2ccc3c(c2)N(C)C(=O)c2ccccc2S3)c1 -28%, CC1CCN(C(=O)Cn2c(-c3cccs3)cc3cc(Cl)ccc32)CC1 -2.06%, COc1ccc(-c2c(C)c3ccc(O)c(CN4CCOCC4)c3oc2=O)cc1OC -0.937%, Cc1cc(C)c2c(c1)c(C)cc1nnc(SCC(=O)c3ccccc3)n12 -6.23%, Cc1ccc(C)c(NC(=O)C(CC(C)C)N2Cc3ccccc3C2=O)c1 (stereo not given) -2.61%, O=C(CSc1nccn1Cc1ccc(F)cc1)NCc1ccco1 0.354%, CC(C)(C)c1ccc(C(=O)Nc2ccc(-c3nc4ccccc4o3)c(O)c2)cc1 3.42%, O=C(CN1C(=O)c2ccccc2Sc2ccc(C(=O)N3CCOCC3)cc21)Nc1ccc(Cl)cc1F -0.0998%, CCN(CC)c1ccc2cc(-c3nc4sc5c(c4c(=O)[nH]3)CCC(C(C)(C)C)C5)c(=O)oc2c1 (stereo not given) -8.02%, COc1cccc(NC(=O)c2c(C)oc3nc(C)nc(N4CCCC4)c23)c1 6.13%, COc1ccc(CC(=O)Nc2nc3c(s2)CCCC3)cc1 -12.4%, CCC(=O)N1CCc2cc(S(=O)(=O)CCC(=O)N3CCN(c4cccc(C)c4C)CC3)ccc21 -5.47%
